Assay results reported in the supplement of paper PMC3694890.
± gives the uncertainty stated by the source. The list shows a part of the results. Phosphotyrosine is written y.

Biological target: GRB2 (endogenous complexes from cell lysate), P62993
Assay: GRB2 complex binding differential signal (pY peptide minus Ala control peptide) (fluorescence intensity units); higher = stronger GRB2 complex binding
Conditions: MCF7
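Note: phosphopeptide probes on the chip at 1–4 µM, lysate proteins bound in 20 mM Tris pH 7.0 buffer with 140 mM NaCl, 1% Triton X-100 and 5% glycerol.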

Binder | GRB2 complex binding differential signal
yANWML [RET_1096/A1] | 2170 ± 370
yCEIPR [RASA3_66/A1] | 2950 ± 970
ySTPHA [RAF1_232/A1] | 7180 ± 6800
yCNIYL [RASA1_615/A1] | 1750 ± 960
yDRLRP [RAC1_64/A1] | 1740 ± 830
yLDLAA [RET_1015/A1] | 133 ± 140
yWEIEA [RAF1_341/A1] | -67.9 ± 300
yDIPRH [BCAR1_234/A1] | 2130 ± 820
ySSSGA [RET_687/A1] | 1360 ± 410
yYWEIE [RAF1_340/A1] | 68.1 ± 320
yDDGLS [RET_1029/A1] | 340 ± 200
yMEGVN [RASA1_952/A1] | 764 ± 280
yEAAQP [BCAR1_224/A1] | 2110 ± 370
yTLVRE [RASH_157/A1] | 1110 ± 340
yGMSDP [RET_1062/A1] | 660 ± 290
yNTIRR [RASA1_460/A1] | -124 ± 370
yPNDSV [RET_1090/A1] | 328 ± 160

Same assay, conditions: MCF10A

Binder | GRB2 complex binding differential signal
yANWML [RET_1096/A1] | 727 ± 280
yCEIPR [RASA3_66/A1] | 1370 ± 380
ySTPHA [RAF1_232/A1] | 4510 ± 1300
yCNIYL [RASA1_615/A1] | 1050 ± 230
yDRLRP [RAC1_64/A1] | 1570 ± 410
yLDLAA [RET_1015/A1] | 149 ± 240
yWEIEA [RAF1_341/A1] | -57.7 ± 320
yDIPRH [BCAR1_234/A1] | 2230 ± 720
ySSSGA [RET_687/A1] | 2090 ± 310
yYWEIE [RAF1_340/A1] | -125 ± 370
yDDGLS [RET_1029/A1] | 46.7 ± 200
yMEGVN [RASA1_952/A1] | 500 ± 400
yEAAQP [BCAR1_224/A1] | 1750 ± 430
yTLVRE [RASH_157/A1] | 778 ± 250
yGMSDP [RET_1062/A1] | 154 ± 220
yNTIRR [RASA1_460/A1] | 378 ± 260
yPNDSV [RET_1090/A1] | 639 ± 240

Same assay, conditions: MDA-MB-231

Binder | GRB2 complex binding differential signal
yANWML [RET_1096/A1] | 1590 ± 360
yCEIPR [RASA3_66/A1] | 546 ± 340
ySTPHA [RAF1_232/A1] | 3930 ± 400
yCNIYL [RASA1_615/A1] | 1960 ± 520
yDRLRP [RAC1_64/A1] | 511 ± 270
yLDLAA [RET_1015/A1] | 686 ± 520
yWEIEA [RAF1_341/A1] | 402 ± 780
yDIPRH [BCAR1_234/A1] | 627 ± 660
ySSSGA [RET_687/A1] | 1070 ± 370
yYWEIE [RAF1_340/A1] | 198 ± 260
yDDGLS [RET_1029/A1] | 358 ± 330
yMEGVN [RASA1_952/A1] | 560 ± 360
yEAAQP [BCAR1_224/A1] | 2390 ± 920
yTLVRE [RASH_157/A1] | 1190 ± 460
yGMSDP [RET_1062/A1] | 657 ± 420
yNTIRR [RASA1_460/A1] | 112 ± 370
yPNDSV [RET_1090/A1] | 348 ± 590

Same assay, conditions: T47D

Binder | GRB2 complex binding differential signal
yANWML [RET_1096/A1] | 9650 ± 2400
yCEIPR [RASA3_66/A1] | 162 ± 1100
ySTPHA [RAF1_232/A1] | 5800 ± 1500
yCNIYL [RASA1_615/A1] | 7950 ± 1900
yDRLRP [RAC1_64/A1] | 1170 ± 1300
yLDLAA [RET_1015/A1] | 439 ± 1500
yWEIEA [RAF1_341/A1] | 372 ± 1000
yDIPRH [BCAR1_234/A1] | 985 ± 1100
ySSSGA [RET_687/A1] | 1450 ± 1600
yYWEIE [RAF1_340/A1] | -165 ± 1700
yDDGLS [RET_1029/A1] | 198 ± 1000
yMEGVN [RASA1_952/A1] | 259 ± 940
yEAAQP [BCAR1_224/A1] | 4010 ± 1200
yTLVRE [RASH_157/A1] | 1580 ± 1300
yGMSDP [RET_1062/A1] | 841 ± 1100
yNTIRR [RASA1_460/A1] | 310 ± 980
yPNDSV [RET_1090/A1] | 2270 ± 960
